Results are given in words; binding and its absence hold for the method and conditions named. For some assays here: Binding seen in cells or lysates may run through a third protein. Some results given as binding are weak or reduced against the parent protein; the word gives no strength.
How the values were obtained:
CRSFKALS = target: T1, CRSFKALS; experiment: peptide microarray, 1 µg/mL LY75_A1, anti-human IgG Alexa 647
T1 sequence (peptide): CRSFKALS

CSERHFVS = target: T2, CSERHFVS; experiment: as above
T2 sequence (peptide): CSERHFVS

DCAAVKVF = target: T3, DCAAVKVF; experiment: as above
T3 sequence (peptide): DCAAVKVF

DCRSFKAL = target: T4, DCRSFKAL; experiment: as above
T4 sequence (peptide): DCRSFKAL

DQALHSFS = target: T5, DQALHSFS; experiment: as above
T5 sequence (peptide): DQALHSFS

FHAERIVR = target: T6, FHAERIVR; experiment: as above
T6 sequence (peptide): FHAERIVR

FHPLLVSG = target: T7, FHPLLVSG; experiment: as above
T7 sequence (peptide): FHPLLVSG

FHQHSILA = target: T8, FHQHSILA; experiment: as above
T8 sequence (peptide): FHQHSILA

HPLLVSGR = target: T9, HPLLVSGR; experiment: as above
T9 sequence (peptide): HPLLVSGR

IQYKGHCY = target: T10, IQYKGHCY; experiment: as above
T10 sequence (peptide): IQYKGHCY

KDCRSFKA = target: T11, KDCRSFKA; experiment: as above
T11 sequence (peptide): KDCRSFKA

KVFHAERI = target: T12, KVFHAERI; experiment: as above
T12 sequence (peptide): KVFHAERI

LLVSGRLR = target: T13, LLVSGRLR; experiment: as above
T13 sequence (peptide): LLVSGRLR

LVSGRLRI = target: T14, LVSGRLRI; experiment: as above
T14 sequence (peptide): LVSGRLRI

NFHPLLVS = target: T15, NFHPLLVS; experiment: as above
T15 sequence (peptide): NFHPLLVS

PLLVSGRL = target: T16, PLLVSGRL; experiment: as above
T16 sequence (peptide): PLLVSGRL

RLTYSSRC = target: T17, RLTYSSRC; experiment: as above
T17 sequence (peptide): RLTYSSRC

SNFHPLLV = target: T18, SNFHPLLV; experiment: as above
T18 sequence (peptide): SNFHPLLV

SRLTYSSR = target: T19, SRLTYSSR; experiment: as above
T19 sequence (peptide): SRLTYSSR

TVKYLNNL = target: T20, TVKYLNNL; experiment: as above
T20 sequence (peptide): TVKYLNNL

VFHAERIV = target: T21, VFHAERIV; experiment: as above
T21 sequence (peptide): VFHAERIV

VKDCRSFK = target: T22, VKDCRSFK; experiment: as above
T22 sequence (peptide): VKDCRSFK

VSGRLRIP = target: T23, VSGRLRIP; experiment: as above
T23 sequence (peptide): VSGRLRIP

WEVKDCRS = target: T24, WEVKDCRS; experiment: as above
T24 sequence (peptide): WEVKDCRS

YKVFHAER = target: T25, YKVFHAER; experiment: as above
T25 sequence (peptide): YKVFHAER

[1] = target: T26, LY75 tryptic peptide … (1030-1044); experiment: pull down of tryptic LY75 peptides on antibody-coupled protein A beads, LC-MS/MS
T26 sequence (peptide): ELTYSNFHPLLVSGR

[2] = target: T27, LY75 tryptic peptide … (1099-1109); experiment: as above
T27 sequence (peptide): QTLQNASETVK

[3] = target: T28, LY75 tryptic peptide … (877 to 890); experiment: as above
T28 sequence (peptide): ISEWPIDDHFTYSR

[4] = target: T29, LY75 tryptic peptide … (896-910); experiment: as above
T29 sequence (peptide): FPVTFGEECLYMSAK

B1: LY75_A1 monoclonal antibody (antibody, V domains shown)
VH: EVQLVESGGGLVKPGGSLRLSCAASGFTYSNAWMSWVRQAPGKGLEWVGRIKSKTDGGTTDYAAPVQGRFTISRDDSKNTLYLQMNSLKTEDTAVYYCTIFGVVSFDYWGQGTLVTVSS
VL: DVQMTQSPSSLSASVGDRVTITCRASQSISDYLSWYQQRPGKAPNLLIYAASNLKTGVPSRFSGSGSGTDFTLTISTLQPEDFATYYCQQSYRSPWTFGQGTKVEIKR
notes: also called LY75A1 antibody; LY75_A1 antibody
binding (CRSFKALS): no binding (tested: 1 µg/mL)
binding (CSERHFVS): no binding (tested: 1 µg/mL)
binding (DCAAVKVF): no binding (tested: 1 µg/mL)
binding (DCRSFKAL): no binding (tested: 1 µg/mL)
binding (DQALHSFS): no binding (tested: 1 µg/mL)
binding (FHAERIVR): no binding (tested: 1 µg/mL)
binding (FHPLLVSG): no binding (tested: 1 µg/mL)
binding (FHQHSILA): no binding (tested: 1 µg/mL)
binding (HPLLVSGR): no binding (tested: 1 µg/mL)
binding (IQYKGHCY): no binding (tested: 1 µg/mL)
binding (KDCRSFKA): no binding (tested: 1 µg/mL)
binding (KVFHAERI): no binding (tested: 1 µg/mL)
binding (LLVSGRLR): no binding (tested: 1 µg/mL)
binding (LVSGRLRI): no binding (tested: 1 µg/mL)
binding (NFHPLLVS): no binding (tested: 1 µg/mL)
binding (PLLVSGRL): no binding (tested: 1 µg/mL)
binding (RLTYSSRC): no binding (tested: 1 µg/mL)
binding (SNFHPLLV): no binding (tested: 1 µg/mL)
binding (SRLTYSSR): binds
binding (TVKYLNNL): no binding (tested: 1 µg/mL)
binding (VFHAERIV): no binding (tested: 1 µg/mL)
binding (VKDCRSFK): no binding (tested: 1 µg/mL)
binding (VSGRLRIP): no binding (tested: 1 µg/mL)
binding (WEVKDCRS): no binding (tested: 1 µg/mL)
binding (YKVFHAER): no binding (tested: 1 µg/mL)
binding [1]: binds
binding [2]: binds
binding [3]: binds
binding [4]: binds
